According to patent publication US20240076343A1 (CEPHALON, published 2024):
Blank lines part the entries; values can stand above or below the binder they belong to.

What was measured:
[1] = target: T1, recombinant human CD122 extracellular domain, C-terminal poly-histidine tagged (human, UniProt P14784 27-240); experiment: BLI (Octet)
T1 construct: also called CD122/IL-2Rβ; IL-2Rβ
T1 sequence: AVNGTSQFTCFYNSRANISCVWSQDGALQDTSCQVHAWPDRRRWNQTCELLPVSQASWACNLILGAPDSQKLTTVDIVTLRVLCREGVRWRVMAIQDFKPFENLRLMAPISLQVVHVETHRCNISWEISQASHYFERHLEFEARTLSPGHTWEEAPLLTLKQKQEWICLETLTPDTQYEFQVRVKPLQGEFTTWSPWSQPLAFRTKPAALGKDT

[2] = target: T2, recombinant human CD25 extracellular domain, C-terminal poly-histidine tagged (human, UniProt P01589 22-240); experiment: BLI (Octet)
T2 construct: also called CD25/IL-2Rα; IL-2Rα
T2 sequence: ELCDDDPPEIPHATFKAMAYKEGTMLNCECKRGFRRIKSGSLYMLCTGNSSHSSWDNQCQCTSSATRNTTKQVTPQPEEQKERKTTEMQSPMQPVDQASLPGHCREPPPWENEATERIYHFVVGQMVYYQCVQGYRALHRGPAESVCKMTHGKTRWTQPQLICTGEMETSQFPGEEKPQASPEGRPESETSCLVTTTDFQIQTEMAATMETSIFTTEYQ

[3] = target: T3, intermediate-affinity hIL-2 receptor complex (IL-2Rβγ) on TF1+IL-2Rβ cells (human, UniProt P14784 27-551; P31785 23-369); experiment: cell-based or functional assay
T3 sequence 1: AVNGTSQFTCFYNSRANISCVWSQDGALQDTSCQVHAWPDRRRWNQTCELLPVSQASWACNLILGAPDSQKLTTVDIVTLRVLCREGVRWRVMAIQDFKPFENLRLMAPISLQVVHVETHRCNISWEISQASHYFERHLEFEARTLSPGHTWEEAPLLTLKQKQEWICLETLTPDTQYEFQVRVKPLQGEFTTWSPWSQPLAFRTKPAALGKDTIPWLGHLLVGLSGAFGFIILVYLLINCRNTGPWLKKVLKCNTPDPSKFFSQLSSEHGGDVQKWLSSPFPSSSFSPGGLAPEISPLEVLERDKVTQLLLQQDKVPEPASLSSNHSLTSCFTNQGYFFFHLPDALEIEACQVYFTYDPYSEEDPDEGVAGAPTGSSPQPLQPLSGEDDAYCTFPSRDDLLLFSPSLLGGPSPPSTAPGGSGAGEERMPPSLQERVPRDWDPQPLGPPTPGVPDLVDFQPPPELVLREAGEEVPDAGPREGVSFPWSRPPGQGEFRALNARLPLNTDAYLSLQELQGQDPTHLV
T3 sequence 2: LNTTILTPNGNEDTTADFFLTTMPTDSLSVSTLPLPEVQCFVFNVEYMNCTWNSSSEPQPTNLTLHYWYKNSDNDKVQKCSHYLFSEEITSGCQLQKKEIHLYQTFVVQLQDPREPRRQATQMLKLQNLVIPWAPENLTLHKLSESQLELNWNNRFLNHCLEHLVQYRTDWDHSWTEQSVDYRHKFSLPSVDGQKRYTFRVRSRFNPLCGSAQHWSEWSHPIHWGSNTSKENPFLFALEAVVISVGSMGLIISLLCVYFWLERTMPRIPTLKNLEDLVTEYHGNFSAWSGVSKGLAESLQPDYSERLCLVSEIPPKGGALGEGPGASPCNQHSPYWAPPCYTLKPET

[4] = target: T4, high-affinity hIL-2 receptor (IL-2Rαβγ) on NK-92 cells (human, UniProt P01589 22-272; P14784 27-551; P31785 23-369); experiment: cell-based or functional assay
T4 sequence 1: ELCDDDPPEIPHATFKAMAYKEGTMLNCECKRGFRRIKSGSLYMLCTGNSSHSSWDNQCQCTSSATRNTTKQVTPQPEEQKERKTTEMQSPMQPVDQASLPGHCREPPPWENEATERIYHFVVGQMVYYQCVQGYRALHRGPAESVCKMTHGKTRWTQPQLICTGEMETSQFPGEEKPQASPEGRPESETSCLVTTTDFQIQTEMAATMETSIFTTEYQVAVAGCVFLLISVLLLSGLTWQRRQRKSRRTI
T4 sequence 2: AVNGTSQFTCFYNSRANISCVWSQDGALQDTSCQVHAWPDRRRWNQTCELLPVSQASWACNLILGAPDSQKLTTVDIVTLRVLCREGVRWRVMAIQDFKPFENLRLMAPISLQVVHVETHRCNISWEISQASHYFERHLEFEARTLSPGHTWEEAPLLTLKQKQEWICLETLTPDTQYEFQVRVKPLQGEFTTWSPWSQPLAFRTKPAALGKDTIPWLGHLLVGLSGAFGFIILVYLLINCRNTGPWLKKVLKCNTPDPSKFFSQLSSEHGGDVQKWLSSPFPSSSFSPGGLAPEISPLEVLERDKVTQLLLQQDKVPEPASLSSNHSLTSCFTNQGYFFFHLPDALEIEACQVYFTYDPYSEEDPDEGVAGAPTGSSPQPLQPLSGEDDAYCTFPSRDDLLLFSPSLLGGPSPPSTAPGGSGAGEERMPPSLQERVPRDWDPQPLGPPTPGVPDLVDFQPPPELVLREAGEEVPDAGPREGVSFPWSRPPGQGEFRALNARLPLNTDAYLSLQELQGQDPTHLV
T4 sequence 3: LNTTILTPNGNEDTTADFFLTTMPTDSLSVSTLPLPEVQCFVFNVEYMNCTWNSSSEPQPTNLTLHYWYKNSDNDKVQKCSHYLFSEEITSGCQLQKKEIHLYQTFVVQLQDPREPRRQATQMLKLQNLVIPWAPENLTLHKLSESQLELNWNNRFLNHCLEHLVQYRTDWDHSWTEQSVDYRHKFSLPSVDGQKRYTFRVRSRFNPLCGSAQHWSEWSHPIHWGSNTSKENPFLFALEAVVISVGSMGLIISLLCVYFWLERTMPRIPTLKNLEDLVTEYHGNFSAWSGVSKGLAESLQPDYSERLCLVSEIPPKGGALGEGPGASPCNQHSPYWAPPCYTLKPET

[5] = target: T3, intermediate-affinity hIL-2 receptor …; experiment: cell-based or functional assay; remark: listed apart in the source
[6] = target: T5, high-affinity hIL-2 receptor (IL-2Rαβγ) (human, UniProt P01589 22-272; P14784 27-551; P31785 23-369); experiment: cell-based or functional assay
T5 sequence 1: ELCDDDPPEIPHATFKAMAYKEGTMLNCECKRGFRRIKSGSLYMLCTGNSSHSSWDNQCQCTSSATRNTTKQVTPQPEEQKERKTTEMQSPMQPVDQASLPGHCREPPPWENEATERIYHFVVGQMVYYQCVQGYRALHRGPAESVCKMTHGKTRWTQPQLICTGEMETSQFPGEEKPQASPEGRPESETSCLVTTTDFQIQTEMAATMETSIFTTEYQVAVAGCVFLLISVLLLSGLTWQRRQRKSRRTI
T5 sequence 2: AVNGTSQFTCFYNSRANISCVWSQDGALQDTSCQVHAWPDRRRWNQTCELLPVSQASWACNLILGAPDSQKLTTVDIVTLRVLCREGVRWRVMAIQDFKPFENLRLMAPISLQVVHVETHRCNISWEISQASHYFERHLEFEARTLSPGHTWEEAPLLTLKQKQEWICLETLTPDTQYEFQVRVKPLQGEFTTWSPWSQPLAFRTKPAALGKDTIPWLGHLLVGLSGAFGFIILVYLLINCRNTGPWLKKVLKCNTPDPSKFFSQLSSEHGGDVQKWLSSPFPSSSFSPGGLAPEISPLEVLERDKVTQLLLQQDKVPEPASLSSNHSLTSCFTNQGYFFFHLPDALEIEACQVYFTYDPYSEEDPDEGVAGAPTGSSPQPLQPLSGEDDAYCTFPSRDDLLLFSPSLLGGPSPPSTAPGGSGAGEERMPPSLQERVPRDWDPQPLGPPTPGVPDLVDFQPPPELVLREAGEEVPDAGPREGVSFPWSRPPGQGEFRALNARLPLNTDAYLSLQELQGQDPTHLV
T5 sequence 3: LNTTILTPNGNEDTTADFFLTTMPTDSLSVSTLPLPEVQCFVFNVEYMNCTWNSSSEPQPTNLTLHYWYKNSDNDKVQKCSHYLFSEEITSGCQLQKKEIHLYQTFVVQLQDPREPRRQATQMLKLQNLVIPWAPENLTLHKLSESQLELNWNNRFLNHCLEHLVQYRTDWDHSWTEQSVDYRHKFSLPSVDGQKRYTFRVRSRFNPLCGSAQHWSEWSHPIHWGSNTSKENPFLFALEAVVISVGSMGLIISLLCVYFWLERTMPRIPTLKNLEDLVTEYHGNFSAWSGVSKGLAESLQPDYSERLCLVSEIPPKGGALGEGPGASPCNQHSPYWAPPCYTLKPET

Kd [1]: 12.9 nM
koff [1]: 0.00473 s⁻¹
kon [1]: 368000 M⁻¹ s⁻¹
binding result [2]: no binding (tested: 300 nM)
Fold change from hIL-2 (TF1 + IL-2Rβ), fixed concentration pSTAT5 screen [3]: 1 fold
B1: 1H3-hIgG1-L6-hIL-2 (R38D/E61R) (other)
heavy: EVQLVESGGGLVQPGRSLKLSCAVSGFTFSDYAMAWVRQAPKKGLEWVATISYDGSRTYYRDSVKGRFTISRDNAKITLYLQMDSLRSEDTATYYCARHGSGYFDYWGQGVMVTVSS[not shown - about 450 residues with a human IgG1 Fc and changes]
light: DTVLTQSPALAVSPGERVTISCRASESVRTGVHWYQQKPGQQPKLLIYGASNLESGVPARFSGSGSGTDFTLTIDPVEADDTATYFCQQSWNDPFTFGSGTKLEIKRTVAAPSVFIFPPSDEQLKSGTASVVCLLNNFYPREAKVQWKVDNALQSGNSQESVTEQDSKDSTYSLSSTLTLSKADYEKHKVYACEVTHQGLSSPVTKSFNRGEC
notes: Built as m13

Fold change from rhIL-2 (NK-92) [4]: 149 fold
Fold change from rhIL-2 (TF1 + IL-2Rβ) [5]: ~104 fold
B2: hCD25-L20-hIL-2 Cterm heavy chain df (other)
heavy: EVQLVESGGGLVQPGRSLKLSCAVSGFTFSDYAMAWVRQAPKKGLEWVATISYDGSRTYYRDSVKGRFTISRDNAKITLYLQMDSLRSEDTATYYCARHGSGYFDYWGQGVMVTVSS[not shown - human IgG1 constant region]ELCDDDPPEIPHATFKAMAYKEGTMLNCECKRGFRRIKSGSLYMLCTGNSSHSSWDNQCQCTSSATRNTTKQVTPQPEEQKERKTTEMQSPMQPVDQASLPGHCREPPPWENEATERIYHFVVGQMVYYQCVQGYRALHRGPAESVCKMTHGKTRWTQPQLICTSGGGGSGGGGSGGGGSGGGS[not shown - about 150 residues]
light: DTVLTQSPALAVSPGERVTISCRASESVRTGVHWYQQKPGQQPKLLIYGASNLESGVPARFSGSGSGTDFTLTIDPVEADDTATYFCQQSWNDPFTFGSGTKLEIKRTVAAPSVFIFPPSDEQLKSGTASVVCLLNNFYPREAKVQWKVDNALQSGNSQESVTEQDSKDSTYSLSSTLTLSKADYEKHKVYACEVTHQGLSSPVTKSFNRGEC

Agonistic Activity (NK-92), pSTAT5 titration [6]: 50%
Fold change from rhIL-2 (NK-92), pSTAT5 titration [6]: > 10000 fold
B3: 1H3-hIgG1-L6-hIL-2 (D20A/R38E/C125A) (other)
heavy: EVQLVESGGGLVQPGRSLKLSCAVSGFTFSDYAMAWVRQAPKKGLEWVATISYDGSRTYYRDSVKGRFTISRDNAKITLYLQMDSLRSEDTATYYCARHGSGYFDYWGQGVMVTVSS[not shown - human IgG1 constant region]SGGGGSAPTSSSTKKTQLQLEHLLLALQMILNGINNYKNPKLTEMLTFKFYMPKKATELKHLQCLEEELKPLEEVLNLAQSKNFHLRPRDLISNINVIVLELKGSETTFMCEYADETATIVEFLNRWITFAQSIISTLT
light: DTVLTQSPALAVSPGERVTISCRASESVRTGVHWYQQKPGQQPKLLIYGASNLESGVPARFSGSGSGTDFTLTIDPVEADDTATYFCQQSWNDPFTFGSGTKLEIKRTVAAPSVFIFPPSDEQLKSGTASVVCLLNNFYPREAKVQWKVDNALQSGNSQESVTEQDSKDSTYSLSSTLTLSKADYEKHKVYACEVTHQGLSSPVTKSFNRGEC
